# According to the supplement of paper PMC10037445:
# Over roughly 2,900 compounds, “NF-kB SEAP reporter activity, fold change vs agonist alone” has its median near 0.99; the highest 2% begin near 2.6. Some of the results follow.
# Key:
# RAW-Dual [1] = assay: NF-kB SEAP reporter activity, fold change vs agonist alone; cytotoxicity flag (confluency mask): not cytotoxic; higher = enhanced NF-kB activity
# Outline: (§1)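 Library stock was pin-tooled at 50 nL into 384-well plates of RAW-Dual macrophages (50,000 cells/well, DMEM), followed 1 h later by a PRR agonist, and the cells were kept at 37 °C, 5% CO2. Supernatant collected after 20 hours was read for IRF by QuantiLuc luminescence and for NF-κB by QuantiBlue absorbance at 620 nm. Reporter activity is fold change over agonist-alone wells, and a well counted as cytotoxic when its IncuCyte confluency was below 70% of agonist controls in both mask sets.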
# RAW-Dual [2] = assay: NF-kB SEAP reporter activity, fold change vs agonist alone; higher = enhanced NF-kB activity
# Outline: as §1
# RAW-Dual [3] = assay: NF-kB SEAP reporter activity, fold change vs agonist alone; cytotoxicity flag (confluency mask): cytotoxic (confluency <70% of control); higher = enhanced NF-kB activity
# Outline: as §1
# [4] = agonist: ODN 1826 (TLR9) 0.5 ug/mL
# [5] = agonist: Pam2CSK4 (TLR2/6) 0.1 ug/mL
# [6] = agonist: Pam3CSK4 (TLR2/1) 0.1 ug/mL
# [7] = library stock concentration (final ~1000-fold dilution): 10 mM, cytotoxicity flag (confluency mask): not cytotoxic, agonist: Imiquimod (TLR7) […]
# [8] = library stock concentration (final ~1000-fold dilution): 10 mM, cytotoxicity flag (confluency mask): not cytotoxic, agonist: MPLA (TLR4) […]
structure (smiles),measurement,setting,value
CCc1oc2ccccc2c1C(=O)c1cc(Br)c(O)c(Br)c1 (library stock concentration (final ~1000-fold dilution): 10 mM),NF-kB SEAP reporter activity,RAW-Dual [1]; agonist: LPS (TLR4) 0.1 ug/mL,1.11
same,NF-kB SEAP reporter activity,RAW-Dual [1]; [4],0.953
same,NF-kB SEAP reporter activity,RAW-Dual [1]; [5],0.961
same,NF-kB SEAP reporter activity,RAW-Dual [1]; [6],1.12
COC1OC(COS(=O)(=O)O)C(OC2OC(C(=O)O)C(OC3OC(COS(=O)(=O)O)C(OC4OC(C(=O)O)C(OC5OC(COS(=O)(=O)O)C(O)C(O)C5NS(=O)(=O)O)C(O)C4O)C(OS(=O)(=O)O)C3NS(=O)(=O)O)C(O)C2OS(=O)(=O)O)C(O)C1NS(=O)(=O)O (centres undefined) (library stock concentration (final ~1000-fold dilution): 10 mM water),NF-kB SEAP reporter activity,RAW-Dual [1]; agonist: LPS (TLR4) 0.1 ug/mL,1.06
same,NF-kB SEAP reporter activity,RAW-Dual [1]; [4],1.3
same,NF-kB SEAP reporter activity,RAW-Dual [1]; [5],1.25
same,NF-kB SEAP reporter activity,RAW-Dual [1]; [6],1.04
COC1OC(COS(=O)(=O)O)C(OC2OC(C(=O)O)C(OC3OC(COS(=O)(=O)O)C(OC4OC(C(=O)O)C(OC5OC(COS(=O)(=O)O)C(O)C(O)C5NS(=O)(=O)O)C(O)C4O)C(OS(=O)(=O)O)C3NS(=O)(=O)O)C(O)C2OS(=O)(=O)O)C(O)C1NS(=O)(=O)O (centres undefined),NF-kB SEAP reporter activity,"RAW-Dual [2]; library stock concentration (final ~1000-fold dilution): 10 mM water, cytotoxicity flag (confluency mask): not cytotoxic, agonist: Imiquimod (TLR7) […]",1.04
same,NF-kB SEAP reporter activity,"RAW-Dual [2]; library stock concentration (final ~1000-fold dilution): 10 mM water, cytotoxicity flag (confluency mask): not cytotoxic, agonist: MPLA (TLR4) […]",1.06
Cc1ccccc1N=Nc1ccc(NC(=O)c2ccnn2C)c(C)c1 (library stock concentration (final ~1000-fold dilution): 10 mM),NF-kB SEAP reporter activity,RAW-Dual [1]; agonist: LPS (TLR4) 0.1 ug/mL,1.07
same,NF-kB SEAP reporter activity,RAW-Dual [1]; [4],0.913
same,NF-kB SEAP reporter activity,RAW-Dual [1]; [5],0.908
same,NF-kB SEAP reporter activity,RAW-Dual [1]; [6],0.949
Cc1ccccc1N=Nc1ccc(NC(=O)c2ccnn2C)c(C)c1,NF-kB SEAP reporter activity,RAW-Dual [2]; [7],0.467
same,NF-kB SEAP reporter activity,RAW-Dual [2]; [8],1.1
CC[N+](CC)(CC)CCOc1cccc(OCC[N+](CC)(CC)CC)c1OCC[N+](CC)(CC)CC (library stock concentration (final ~1000-fold dilution): 10 mM),NF-kB SEAP reporter activity,RAW-Dual [1]; agonist: LPS (TLR4) 0.1 ug/mL,1.38
same,NF-kB SEAP reporter activity,RAW-Dual [1]; [4],1.11
same,NF-kB SEAP reporter activity,RAW-Dual [1]; [5],1.16
same,NF-kB SEAP reporter activity,RAW-Dual [1]; [6],1.27
CC[N+](CC)(CC)CCOc1cccc(OCC[N+](CC)(CC)CC)c1OCC[N+](CC)(CC)CC,NF-kB SEAP reporter activity,RAW-Dual [2]; [7],0.986
same,NF-kB SEAP reporter activity,RAW-Dual [2]; [8],1.06
CN1CCN(Cc2ccc(NC(=O)Nc3ccc(Oc4ccnc(N)n4)cc3)cc2C(F)(F)F)CC1 (library stock concentration (final ~1000-fold dilution): 10 mM),NF-kB SEAP reporter activity,RAW-Dual [3]; agonist: LPS (TLR4) 0.1 ug/mL,0.293
same,NF-kB SEAP reporter activity,RAW-Dual [3]; [4],0.197
same,NF-kB SEAP reporter activity,RAW-Dual [3]; [5],0.0678
same,NF-kB SEAP reporter activity,RAW-Dual [3]; [6],0.129
CN1CCN(Cc2ccc(NC(=O)Nc3ccc(Oc4ccnc(N)n4)cc3)cc2C(F)(F)F)CC1,NF-kB SEAP reporter activity,"RAW-Dual [2]; library stock concentration (final ~1000-fold dilution): 10 mM, cytotoxicity flag (confluency mask): cytotoxic (confluency <70% of control), agonist: Imiquimod (TLR7) […]",0.146
same,NF-kB SEAP reporter activity,"RAW-Dual [2]; library stock concentration (final ~1000-fold dilution): 10 mM, cytotoxicity flag (confluency mask): cytotoxic (confluency <70% of control), agonist: MPLA (TLR4) […]",0.248
CC(C(=O)O)c1ccc(C(=O)c2cccs2)cc1 (centres undefined),NF-kB SEAP reporter activity,RAW-Dual [2]; [7],0.601
same,NF-kB SEAP reporter activity,RAW-Dual [2]; [8],0.825
CC(C(=O)O)c1ccc(C(=O)c2cccs2)cc1 (centres undefined) (library stock concentration (final ~1000-fold dilution): 10 mM),NF-kB SEAP reporter activity,RAW-Dual [1]; agonist: LPS (TLR4) 0.1 ug/mL,1.19
same,NF-kB SEAP reporter activity,RAW-Dual [1]; [4],0.999
same,NF-kB SEAP reporter activity,RAW-Dual [1]; [5],1.06
same,NF-kB SEAP reporter activity,RAW-Dual [1]; [6],1.07
